The values below come from PMC6919601, “Identification of Plasmodium dipeptidyl aminopeptidase allosteric inhibitors by high throughput screening” (PLoS ONE, 2019).

Molecules are shown by their SMILES. The campaign covered roughly 110,000 compounds. About 230 (0.21%) showed an effect of 50% or more. Some of the results follow.
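Further: 30 min substrate incubation versus DMSO and 10 µM JCP410 controls.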

DPAP1, sequence (Q8IIJ9 whole entry, looked up): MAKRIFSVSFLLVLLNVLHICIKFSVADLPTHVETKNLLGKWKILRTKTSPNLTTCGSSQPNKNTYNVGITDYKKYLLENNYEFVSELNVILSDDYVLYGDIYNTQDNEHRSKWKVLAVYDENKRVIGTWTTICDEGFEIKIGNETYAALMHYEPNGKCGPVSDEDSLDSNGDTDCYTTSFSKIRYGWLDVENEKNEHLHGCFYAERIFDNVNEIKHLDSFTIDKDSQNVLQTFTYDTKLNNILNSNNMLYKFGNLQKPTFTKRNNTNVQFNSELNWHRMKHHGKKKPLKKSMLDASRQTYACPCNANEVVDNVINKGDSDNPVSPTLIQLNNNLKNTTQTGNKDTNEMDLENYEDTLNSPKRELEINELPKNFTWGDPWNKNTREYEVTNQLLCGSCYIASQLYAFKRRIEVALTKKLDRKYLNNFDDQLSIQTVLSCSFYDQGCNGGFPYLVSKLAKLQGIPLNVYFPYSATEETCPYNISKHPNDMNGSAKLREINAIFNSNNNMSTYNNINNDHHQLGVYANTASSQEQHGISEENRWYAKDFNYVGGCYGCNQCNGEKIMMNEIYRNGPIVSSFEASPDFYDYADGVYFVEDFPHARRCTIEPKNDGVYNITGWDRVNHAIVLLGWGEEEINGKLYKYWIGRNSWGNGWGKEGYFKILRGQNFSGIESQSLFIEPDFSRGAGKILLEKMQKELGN

This experiment concerns the target DPAP1 (Plasmodium falciparum, UniProt Q8IIJ9). Briefly: primary screen, percent inhibition; read by cleavage of a fluorogenic dipeptide substrate; higher = more effect of the substance. Also on record: species or system P. falciparum D10 trophozoite lysates; single well.
As for `CC(C)c1ccccc1NC(=O)CN(c1cc(C(F)(F)F)ccc1Cl)S(C)(=O)=O`, the “% Inhibition @ 10 uM” value is -7.56%. In the case of `Oc1ncnc2[nH]c(N3CCNCC3)nc12`, the “% Inhibition @ 10 uM” value is on record as -0.711%. Regarding `CCN1CCN(CC(=O)n2c(C)c(C)c3ccccc32)CC1`, the “% Inhibition @ 10 uM” value is reported as -1.72%. As for `CC(C)(C)/C(O)=C/C(=N)c1cccnc1`, the figure is 2.8%; as for `CCc1c(CN(Cc2ccccc2)C(C)C)csc1C`, -0.999%. As for `CC(C)N(Cc1nc(-c2ccccc2)no1)C(=O)c1cccs1`, the figure is -3.06%; as for `c1coc(CNc2nc3ccccc3n2CCN2CCOCC2)c1`, 0.843%. On to `O=C1C2C3CCC(C3)C2C(=O)N1c1cccc(Cl)c1` (stereo not drawn), for which the “% Inhibition @ 10 uM” value is -0.996%.

Turning to `O=C(Nc1ccc(S(=O)(=O)N2CCc3ccccc32)cc1)c1ccc(Br)o1`, the “% Inhibition @ 10 uM” value is recorded as 0.446%. For `Cc1ccccc1CCNC(=O)C(C)n1nc(C)c2c(C)n(-c3ccccc3)nc2c1=O` (stereo not drawn), the “% Inhibition @ 10 uM” value is -0.846%. Consider `CCc1cccc(NC(=O)Cc2ccc(OC)c(OC)c2)c1`, for which the “% Inhibition @ 10 uM” value is -1.89%.

For the compound `c1coc(CNc2ncnc3c2nc2n3CCCCC2)c1`, the “% Inhibition @ 10 uM” value was -4.89%. With `COc1ccc(C(=O)Nc2cccc(Cl)c2C)cc1Br`, the “% Inhibition @ 10 uM” value was -3.96%. Next, `CC(=O)Nc1ccc(Oc2ccccc2)cc1`: 2.13%. Regarding `Cc1cccc(NC(=O)C2C3C=CC(C3)C2C(=O)O)n1` (stereo not drawn), the “% Inhibition @ 10 uM” value is -4.21%.

In the case of `Cc1ccc(CNC(=O)c2nnn(-c3cccc(C(F)(F)F)c3)c2N)cc1`, the “% Inhibition @ 10 uM” value turned out to be 6.81%. Turning to `CC1=C(c2ccc(C)c(C)c2)S(=O)(=O)N(Cc2ccc(C(=O)NCCc3cccs3)cc2)C1=O`, the “% Inhibition @ 10 uM” value turned out to be 6.31%. Turning to `Clc1nc2ccccc2c2[nH]c3ccccc3c12`, the “% Inhibition @ 10 uM” value was determined as 5.97%. With `COc1ccc(OC)c2c1CCC(NC(C)=O)C2=O` (stereo not drawn), the “% Inhibition @ 10 uM” value is given as -2.54%. `NC1=NC(=O)/C(=C\c2ccccc2Sc2ccc(Cl)cc2)S1`: the “% Inhibition @ 10 uM” value turned out to be 2.6%. As for `CC(C)C[C@H](NC(=O)c1cccc(-c2csc(N=C(N)N)n2)c1)C(=O)NCC#N`, the “% Inhibition @ 10 uM” value is given as -2.35%. Next, `Cc1c(C(=O)N2CCOCC2)oc2c1-c1nn(CC(=O)NC3CCCc4ccccc43)cc1CC2` (stereo not drawn): -6.25%; `NC(=O)C1CCN(Cc2ccc(Cl)cc2Cl)CC1`: -3.17%; `COc1ccccc1CNCc1c(C(=O)O)c(C)n(Cc2ccc(F)cc2Cl)c1C`: -9.31%. Turning to `CCOC(=O)c1cnc2cc(C(F)(F)F)ccc2c1N(C)Cc1ccccc1`, the “% Inhibition @ 10 uM” value is given as 3.54%. As for `COc1ccc(S(=O)(=O)N2CCc3ccccc32)cc1`, the “% Inhibition @ 10 uM” value was -4.3%. Next, `O=C([C@@H](c1ccccc1)N1Cc2ccccc2C1=O)N1CCOCC1`: -2.25%; `O=C(CCc1nc(-c2cccs2)no1)NCc1ccc(F)cc1Cl`: -3.39%; `Cc1cc(C)n2nc(CCc3ccccc3)nc2n1`: -4.19%. As for `COC(=O)/C(O)=C/C1=NC(C)(C)Cc2ccccc21`, the figure is 2.7%; as for `COC(=O)c1cc2c(s1)CS(=O)C2` (stereo not drawn), 3.04%; as for `Cc1cc(C)cc(NS(=O)(=O)c2ccc(NC(=O)CCC(=O)O)cc2)c1`, -2.42%. For the compound `NS(=O)(=O)c1ccc(NC(=O)c2sc3ccccc3c2Cl)cc1`, the “% Inhibition @ 10 uM” value was -6.92%. On to `CCOC(=O)NC1CS(=O)(=O)CC1N` (stereo not drawn), for which the “% Inhibition @ 10 uM” value was 0.884%. As to `CC(C)N(CCC#N)S(=O)(=O)c1ccc(-c2ccc([N+](=O)[O-])cc2)cc1`, the “% Inhibition @ 10 uM” value is 1.9%. Take `N#CCNC(=O)C(CSC(=O)OCc1ccccc1)NC(=O)OCc1ccccc1` (stereo not drawn): the “% Inhibition @ 10 uM” value is -1.41%. Turning to `O=C1C(Cl)=C(N2CCCCC2)C(=O)N1Cc1ccccc1`, the “% Inhibition @ 10 uM” value is -2.46%. `CC1CN(CCCc2ccccc2)CC(C)O1` (stereo not drawn): the “% Inhibition @ 10 uM” value turned out to be 1.67%. As for `Cc1cccc(C)c1NC(=O)c1ccc(Br)o1`, the figure is -2.6%. As for `CCN1CCN(Cc2nc3c(c(=O)n(C)c(=O)n3C)n2CCCc2ccccc2)CC1`, the figure is -1.65%.

Consider `COCCCNC(=O)c1c(NC(=O)c2cc(=O)c3cc(Cl)ccc3o2)sc2c1CCCC2`, for which the “% Inhibition @ 10 uM” value is 3.51%. In the case of `O=C(/C=C/c1ccccc1)Nc1ccc(OC(F)(F)F)cc1`, the “% Inhibition @ 10 uM” value is on record as -1.59%. For the compound `COc1cc(NC(=O)c2c(OC)cccc2OC)c(OC)cc1Cl`, the “% Inhibition @ 10 uM” value is recorded as 1.67%. With `CC1=C(C)CC2C(=O)C3=C(C(=O)C2C1)C1c2ccccc2C3c2ccccc21` (stereo not drawn), the “% Inhibition @ 10 uM” value is 1.12%.

For the compound `COc1ccc(OC)c(/C=C/C(=O)c2ccc(OC)cc2OC)c1`, the “% Inhibition @ 10 uM” value is on record as 7.33%.

As for `COCCNC(=O)c1ccc(CS(=O)(=O)c2cccc(C(F)(F)F)c2)o1`, the “% Inhibition @ 10 uM” value is on record as -3.09%. Next, `OCCOCCN1CCN(Cc2cc(Br)cs2)CC1`: 2.65%; `CCOc1ccc(-c2cc(C(=O)N3CCOCC3)c3c(-c4ccc(C)cc4)[nH]nc3n2)cc1`: -2.28%; `N#Cc1ccc(NC(=O)CSc2ncn(-c3ccccc3)n2)cc1`: 5.09%. For the compound `COc1ccccc1N1CCN(C(=O)/C=C/c2ccccc2)CC1`, the “% Inhibition @ 10 uM” value is -0.127%. Regarding `Cc1cc(-c2ccc([N+](=O)[O-])cc2)nc2ccc3ccccc3c12`, the “% Inhibition @ 10 uM” value is recorded as -0.239%. Consider `O=C1CC(c2cccc([N+](=O)[O-])c2)NC(=S)N1` (stereo not drawn), for which the “% Inhibition @ 10 uM” value was -13%. As to `CCCCNC(=O)c1cc(C)nn1-c1ccccc1`, the “% Inhibition @ 10 uM” value was -0.138%.

Consider `O=C(NCc1cccs1)C1CC(=O)N(c2ccc(Cl)cc2)C1` (stereo not drawn), for which the “% Inhibition @ 10 uM” value is recorded as -4.7%. As for `CCCSc1nc(=O)c2c(n1C)NC(=O)CC2c1cccc(O)c1` (stereo not drawn), the figure is -1.11%.

On to `O=C1NC(=O)N(C2CCCCC2)C(=O)/C1=C/c1cccc(O)c1`, for which the “% Inhibition @ 10 uM” value is -3.04%. Turning to `CC(C)Cc1ccc2c(n1)sc1c(N)ncnc12`, the “% Inhibition @ 10 uM” value is -2.97%. As for `COc1cc(C(=O)Nc2nonc2-c2ccc(C)cc2)cc(OC)c1OC`, the “% Inhibition @ 10 uM” value is recorded as -2.84%.

In the case of `Cn1cc(NC(=O)N(Cc2ccco2)CC2CCCO2)c2ccccc2c1=O` (stereo not drawn), the “% Inhibition @ 10 uM” value amounted to 4.91%. For the compound `CC1=C(C(=O)OCCOc2ccccc2)C(c2cc3c(cc2Br)OCO3)CC(=O)N1` (stereo not drawn), the “% Inhibition @ 10 uM” value is 3.11%. Turning to `C=C(Br)Cn1c(CCNC(=O)c2ccco2)nc2ccccc21`, the “% Inhibition @ 10 uM” value stood at 2.02%. With `O=S(=O)(c1ccc(Br)cc1)N1CCc2[nH]ncc2C1`, the “% Inhibition @ 10 uM” value was -3.1%. Next, `Cc1nc2c(-c3ccc(F)cc3)c(C)nn2c(C)c1CCC(=O)N1CCN(c2ccccn2)CC1`: 2.93%; `Cc1ccc(-c2c(O)c(=O)/c2=N\CCCN(C)Cc2ccccc2)cc1`: 5.39%; `Cc1ccc(NC(=O)C2CC=CCC2C(=O)O)cc1` (stereo not drawn): 0.35%.

Turning to `CCOc1ccccc1-n1nnc(-c2nc(-c3ccc(Cl)cc3)no2)c1N`, the “% Inhibition @ 10 uM” value was -3.88%.
